Test results taken from PubChem BioAssay AID624417 (National Center for Advancing Translational Sciences (NCATS), 2012).
Among all 410,000 compounds or so, about 6,400 (1.6%) were called active. Inconclusive results, whose numbers are uncertain, are shown with a selection of clear calls. Calls follow the shape of the dose curve; as a rule, active = well fitted inhibition curve with a large enough effect; inconclusive = small, poorly fitted or top-dose-only effect; inactive = no such curve, though single readings can be large or run the other way. Potencies of inconclusive entries are doubtful fits and often do not repeat.

molecular target: Glucagon-like peptide 1 receptor (Homo sapiens) (UniProt P43220); assay: qHTS of GLP-1 Receptor Inverse Agonists (Inhibition Mode); details: HEK293 GLP-1R CRE-luciferase, luminescence, 24 h, GLP-1R form is constitutively active; series mostly up to 38.3 µM; also: nearly all actives have a fitted effect of over 55% in size
Chain of UniProt P43220 (P43220 whole entry, looked up): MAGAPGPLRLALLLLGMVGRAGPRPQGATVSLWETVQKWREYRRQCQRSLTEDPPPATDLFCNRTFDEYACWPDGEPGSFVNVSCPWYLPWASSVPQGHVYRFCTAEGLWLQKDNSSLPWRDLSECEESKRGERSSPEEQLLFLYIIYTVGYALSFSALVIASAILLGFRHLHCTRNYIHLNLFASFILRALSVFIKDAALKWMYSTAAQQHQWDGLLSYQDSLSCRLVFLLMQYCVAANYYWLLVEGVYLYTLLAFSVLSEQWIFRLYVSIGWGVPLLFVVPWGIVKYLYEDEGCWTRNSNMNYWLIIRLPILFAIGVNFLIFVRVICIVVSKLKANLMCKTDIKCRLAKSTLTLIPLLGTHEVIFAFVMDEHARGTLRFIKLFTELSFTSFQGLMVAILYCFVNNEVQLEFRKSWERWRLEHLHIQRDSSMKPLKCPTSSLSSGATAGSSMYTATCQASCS
In short: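 Inverse agonism was detected as reduced cAMP-driven luciferase luminescence after 24 h compound treatment. The cells were HEK293 clones expressing constitutively active human GLP-1R with the reporter. Reporter-only and GPR119 cell lines served as counterscreen controls.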
Potency is read from the fitted curve at half-maximal effect; tags tell the direction and shape of the fitted curve.

Potency, inconclusive:
COc1ccc(S(=O)(=O)NCC(c2ccc(F)cc2)N2CCOCC2)cc1Br (stereo unspecified) 11.2 µM [inhibitor, single point], COc1cc(OC)cc(-c2cc3nc(C)c(CCC(=O)NCc4ccccc4)c(C)n3n2)c1 28.2 µM [inhibitor, single point], COc1ccccc1Nc1nc2nonc2nc1N1CCCCC1C (stereo unspecified) 1 µM [inhibitor, full curve, poor fit], O=C(CSCc1cnn(-c2ccccc2)c1-n1cccc1)NCc1ccc(Cl)cc1 20 µM [inhibitor, single point], CCCOc1ccc(NC(=O)CC2C(=O)N(c3cccc(OC)c3)C(=O)N2Cc2cccs2)cc1 (stereo unspecified) 14.1 µM [inhibitor, single point], CC(c1ccccc1F)n1cc(C(=O)NCCc2ccco2)nn1 (stereo unspecified) 7.08 µM [inhibitor, partial curve, poor fit], CCN(CC)CCCNc1oc(-c2ccc(OC)c(OC)c2)nc1C#N 10 µM [inhibitor, single point], CCc1ccc(NC(=O)C(C)OC(=O)c2cccc(S(=O)(=O)N3CCc4ccccc4C3)c2)cc1 (stereo unspecified) 4.47 µM [inhibitor, full curve, poor fit], CCN(CC)CCOCCOC(=O)C(CC)(CC)c1ccccc1 5.62 µM [inhibitor, full curve, poor fit], Cc1ccc(-c2ccc3c(c2)O[C@H](CN(C)C(=O)Nc2ccc(C(F)(F)F)cc2)[C@H](C)CN([C@H](C)CO)S3(=O)=O)cc1 28.2 µM [inhibitor, single point], Cc1noc(C)c1COc1ccc(CC(=O)NC2CCCCCC2)cc1 12.6 µM [inhibitor, partial curve, poor fit], Clc1ccc(OCc2nn3c(C4CCCCC4)nnc3s2)cc1 7.94 µM [inhibitor, partial curve, poor fit], O=C(CCc1ccc(F)c(F)c1)NC1CCCN(Cc2ccc(Cl)cc2)C1 (stereo unspecified) 11.2 µM [inhibitor, single point], COc1ccc(CCC(=O)NCC(c2ccco2)N2CCc3ccccc32)cc1 (stereo unspecified) 12.6 µM [inhibitor, partial curve, poor fit], O=C1N[C@H](Cc2ccccc2)COC(=O)[C@H](Cc2ccc(F)cc2)CC/C=C/C[C@H]1CC(=O)N(CCO)Cc1ccccc1 10 µM [inhibitor, partial curve, poor fit], COc1cc(OC)nc(Oc2ccccc2C(=O)Oc2ccc(C)cc2)n1 28.2 µM [inhibitor, single point], CC1CC(C)CN(CCOCCSc2ccccc2)C1 (stereo unspecified) 12.6 µM [inhibitor, partial curve, poor fit], CC(=O)n1cc([C@@H]2C=C(C(=O)Nc3ccccc3)O[C@H](OCCCCO)C2)c2ccccc21 28.2 µM [inhibitor, single point], O=C(NCCc1cccnc1)c1cc(COc2ccc(F)cc2F)on1 11.2 µM [inhibitor, single point], Cc1ccc(N(CC(=O)Nc2ccccc2-c2ccccc2)S(=O)(=O)c2ccccc2)c(C)c1 11.2 µM [inhibitor, partial curve, poor fit], O=C(NCCN1CCN(c2ccccc2Cl)CC1)Nc1ccccc1 10 µM [inhibitor, partial curve, poor fit], S=C(Nc1ccc(Cl)cc1Cl)Nc1ccccc1Oc1ccccc1 28.2 µM [inhibitor, single point], Cc1ccc2[nH]c(C)c(/C=C/c3cc[n+](C)cc3)c2c1 7.08 µM [inhibitor, partial curve, poor fit], Cc1ccccc1-c1nc(CN2CCC(C(=O)NCCCN3CCCC3)CC2)c(C)o1 17.8 µM [inhibitor, partial curve, poor fit], COc1cccc(NC(=O)CCCCCn2nnc3ccccc3c2=O)c1 11.2 µM [inhibitor, partial curve, poor fit], C/C(=N\NC(=S)NCc1ccccc1)c1ccccc1 10 µM [inhibitor, partial curve, poor fit], COc1ccc(C(=O)NC2CCCc3ccccc32)cc1[N+](=O)[O-] (stereo unspecified) 31.6 µM [inhibitor, partial curve, poor fit], COC(=O)c1cc(NS(=O)(=O)c2ccc(N3CCCCCC3)c([N+](=O)[O-])c2)cc(C(=O)OC)c1 7.94 µM [inhibitor, partial curve, poor fit], O=C(NCC1CCCO1)c1ccccc1OCc1ccc(Cl)cc1 (stereo unspecified) 10 µM [inhibitor, partial curve], COCc1nn2cc(-c3ccc(C)cc3)nc2s1 10 µM [inhibitor, single point], O=C(CSc1nc2ccccc2[nH]1)Nc1ccc(F)cc1 10 µM [inhibitor, single point]

Potency, inactive:
C/C(=N/NC(=O)c1ccncc1)c1ccc2c(c1)OCO2, CCOC(=O)N1CCN(S(=O)(=O)c2ccc3[nH]c(=O)oc3c2)CC1, COc1ccc(N2CCN(C(c3ccccc3)c3sc4nc(-c5ccco5)nn4c3O)CC2)cc1 (stereo unspecified), O=C(Nc1nc2c(s1)CCCCCC2)Nc1ccc(F)cc1F, COc1ccc(C(=O)NC(=S)NNC(=O)Cc2cccs2)cc1, O=c1[nH]cnc2c1ncn2C1CCC(CO)O1 (stereo unspecified), CC(C)(C)c1ccc(CN(Cc2ccco2)Cc2nnnn2C2CCCC2)cc1, COCc1nnc(NC(=O)CSCc2ccccc2)s1

Potency, active:
CC(C)c1ccc(OCC(O)CN2CCN(c3ccccc3)CC2)cc1 (stereo unspecified) 10 µM, O=C1c2ccsc2SCCN1Cc1c(Cl)cccc1Cl 2.51 µM
